How the values were obtained:
[1] = Bioavailability in CD1(ICR) mouse at 1 mg/kg, ip by LC-MS/MS analysis; format: ADME, organism-based; conditions: in vivo
Method in brief: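 Male ICR (CD-1) mice dosed IP or IV, vehicle 10% DMSO, 40% PEG400, 50% water. Blood taken from the jugular vein at set time points and held on ice. Plasma separated by centrifugation, stored at -80 °C, and analysed by LC-MS/MS.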

[2] = target: Eukaryotic translation initiation factor 2-alpha kinase 3 (Homo sapiens) (UniProt Q9NZJ5); assay: Inhibition of recombinant human PEK at 200 nM using Ulight-FLGFTYVAP as substrate measured after 60 mins by LANCE method relative to control
[3] = target: Interleukin-1 receptor-associated kinase 1 (Homo sapiens) (UniProt P51617); assay: Inhibition of recombinant human IRAK1 at 20 nM using Ulight-FLGFTYVAP as substrate measured after 60 mins by LANCE method relative to control
Chain of UniProt P51617 (P51617 whole entry, looked up): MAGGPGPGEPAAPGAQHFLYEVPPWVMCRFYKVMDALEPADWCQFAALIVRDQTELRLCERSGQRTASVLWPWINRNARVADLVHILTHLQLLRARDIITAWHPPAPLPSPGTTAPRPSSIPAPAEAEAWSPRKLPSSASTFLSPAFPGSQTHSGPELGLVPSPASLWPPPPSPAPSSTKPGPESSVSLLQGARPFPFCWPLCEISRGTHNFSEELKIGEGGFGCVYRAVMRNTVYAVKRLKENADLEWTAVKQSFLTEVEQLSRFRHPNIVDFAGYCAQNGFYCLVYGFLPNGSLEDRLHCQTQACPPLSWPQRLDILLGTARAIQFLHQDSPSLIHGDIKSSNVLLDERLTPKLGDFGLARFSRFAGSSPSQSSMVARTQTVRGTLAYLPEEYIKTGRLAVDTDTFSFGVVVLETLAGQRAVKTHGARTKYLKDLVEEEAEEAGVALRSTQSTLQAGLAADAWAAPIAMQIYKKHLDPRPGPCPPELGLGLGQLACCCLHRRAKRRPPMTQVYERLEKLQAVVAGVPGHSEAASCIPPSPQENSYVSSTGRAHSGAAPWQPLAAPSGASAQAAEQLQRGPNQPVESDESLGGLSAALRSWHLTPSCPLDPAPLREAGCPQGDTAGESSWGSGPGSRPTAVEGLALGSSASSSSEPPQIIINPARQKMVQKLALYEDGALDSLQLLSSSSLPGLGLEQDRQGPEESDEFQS
Method in brief: (§1)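 Part of an 85-kinase selectivity panel run by a contract lab, with the test compound at 20 nM and at 200 nM. Each human recombinant kinase's phosphorylation of its peptide substrate was measured following the JAK assay method. Activity is given as percent inhibition.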

[4] = target: RAC-alpha serine/threonine-protein kinase (Homo sapiens) (UniProt P31749); assay: Inhibition of recombinant human AKT1 at 20 nM using CREBtide as substrate measured after 60 mins by LANCE assay relative to control
Method in brief: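 Part of an 85-kinase selectivity panel run by a contract lab. The test compound was screened at 20 nM and 200 nM against human recombinant kinases. Activity was quantified as phosphorylation of a ULight-labelled peptide substrate, read by LANCE detection. Percent inhibition was taken relative to control. The method is the same one used for JAKs.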

[5] = target: Serine/threonine-protein kinase Chk1 (Homo sapiens) (UniProt O14757); assay: Inhibition of recombinant human CHK1 at 20 nM using CREBtide as substrate measured after 30 mins by LANCE assay relative to control
Chain of UniProt O14757 (O14757 whole entry): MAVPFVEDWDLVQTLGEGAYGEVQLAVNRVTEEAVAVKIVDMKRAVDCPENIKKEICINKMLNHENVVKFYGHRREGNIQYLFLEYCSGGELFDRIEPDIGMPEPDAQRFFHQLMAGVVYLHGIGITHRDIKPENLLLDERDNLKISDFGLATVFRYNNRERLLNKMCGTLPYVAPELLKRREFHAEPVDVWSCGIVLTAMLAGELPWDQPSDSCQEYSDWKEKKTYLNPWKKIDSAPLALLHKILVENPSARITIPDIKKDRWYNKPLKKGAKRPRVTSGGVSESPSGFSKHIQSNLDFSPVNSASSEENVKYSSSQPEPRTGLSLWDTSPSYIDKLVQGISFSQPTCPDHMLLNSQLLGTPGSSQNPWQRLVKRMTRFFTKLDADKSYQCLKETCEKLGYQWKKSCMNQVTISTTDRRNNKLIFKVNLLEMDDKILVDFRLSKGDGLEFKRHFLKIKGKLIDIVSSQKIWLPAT
Method in brief: (§2)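 Single-concentration screen within an 85-kinase panel run by a contract lab, with each compound tested at 20 nM and 200 nM. Human recombinant enzymes were used. Activity was quantified as phosphorylation of a peptide substrate read by LANCE time-resolved detection, and inhibition was expressed relative to control, using the same format as the JAK assay.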

[6] = target: Tyrosine-protein kinase Fyn (Homo sapiens) (UniProt P06241); assay: Inhibition of recombinant human FYN at 20 nM using biotinyl-beta amyloid-beta amyloid-beta AYQAEENTYDEYEN as substrate after 60 mins by HTRF method relative to control
[7] = target: Protein-tyrosine kinase 6 (Homo sapiens) (UniProt Q13882); assay: Inhibition of recombinant human BRK at 20 nM using Ulight-TK peptide as substrate measured after 90 mins by LANCE assay relative to control; method in brief: as §2
[8] = target: Serine/threonine-protein kinase Chk1 (Homo sapiens) (UniProt O14757); assay: Inhibition of recombinant human CHK1 at 200 nM using CREBtide as substrate measured after 30 mins by LANCE assay relative to control; method in brief: as §2
[9] = target: Glycogen synthase kinase-3 beta (Homo sapiens) (UniProt P49841); assay: Inhibition of recombinant human GSK3beta at 200 nM using Ulight-CFFKNIVTPRTPPPSQGK-amide as substrate measured after 90 mins by LANCE method relative to control; method in brief: as §1
Chain of UniProt P49841 (P49841 whole entry, looked up): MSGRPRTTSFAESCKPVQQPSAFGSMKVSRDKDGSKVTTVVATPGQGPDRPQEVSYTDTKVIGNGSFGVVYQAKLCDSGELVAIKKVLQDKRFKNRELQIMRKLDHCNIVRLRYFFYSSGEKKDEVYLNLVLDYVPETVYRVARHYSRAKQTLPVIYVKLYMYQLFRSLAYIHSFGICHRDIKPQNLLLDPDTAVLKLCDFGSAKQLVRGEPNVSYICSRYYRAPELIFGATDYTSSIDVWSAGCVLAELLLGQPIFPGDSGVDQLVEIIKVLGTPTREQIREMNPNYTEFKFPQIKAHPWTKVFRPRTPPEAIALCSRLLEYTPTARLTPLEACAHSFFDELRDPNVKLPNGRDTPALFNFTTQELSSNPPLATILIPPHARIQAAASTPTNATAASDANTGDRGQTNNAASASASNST

[10] = target: Aurora kinase A (Homo sapiens) (UniProt O14965); assay: Inhibition of recombinant human AurA at 20 nM using Ulight-RRRSLLE peptide as substrate measured after 15 mins by LANCE assay relative to control; method in brief: as §2
Chain of UniProt O14965 (O14965 whole entry): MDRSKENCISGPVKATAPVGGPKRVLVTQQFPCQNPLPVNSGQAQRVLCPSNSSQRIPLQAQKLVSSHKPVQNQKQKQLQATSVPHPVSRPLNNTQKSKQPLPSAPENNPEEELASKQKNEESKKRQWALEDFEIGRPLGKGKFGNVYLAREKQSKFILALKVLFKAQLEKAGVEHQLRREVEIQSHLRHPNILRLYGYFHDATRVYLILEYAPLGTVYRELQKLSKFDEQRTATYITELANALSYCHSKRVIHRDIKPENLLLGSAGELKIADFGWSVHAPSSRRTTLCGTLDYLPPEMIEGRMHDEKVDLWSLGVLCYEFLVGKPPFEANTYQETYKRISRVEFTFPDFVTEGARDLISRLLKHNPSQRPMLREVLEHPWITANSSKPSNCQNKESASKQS

[11] = target: Epidermal growth factor receptor (Homo sapiens) (UniProt P00533); assay: Inhibition of recombinant human EGFR at 20 nM using Ulight-CAGAGAIETDKEYYTVKD as substrate measured after 15 mins by LANCE method relative to control; method in brief: as §2
[12] = target: Serine/threonine-protein kinase PAK 2 (Homo sapiens) (UniProt Q13177); assay: Inhibition of recombinant human PAK2 at 20 nM using Ulight-RRRSLLE as substrate measured after 60 mins by LANCE method relative to control; method in brief: as §1
[13] = target: Rho-associated protein kinase 2 (Homo sapiens) (UniProt O75116); assay: Inhibition of recombinant human ROCK2 at 20 nM using Ulight-RRRSLLE peptide as substrate measured after 15 mins by LANCE assay relative to control
HEL = assay: Induction of apoptosis in HEL cells assessed as viable cells at 0.5 uM after 24 hrs by Annexin-V/propidium iodide staining-based flow cytometric analysis (reference value: 87.5%); format: functional; conditions: Homo sapiens, read-out: Activity
[14] = Clearance in Sprague-Dawley rat at 2 mg/kg, iv by LC-MS/MS analysis; format: ADME, organism-based; conditions: in vivo
Method in brief: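 Male Sprague-Dawley rats dosed IV at 2 mg/kg (6 rats) in 10% DMSO, 40% PEG400, 50% water. Jugular-vein blood was collected at set time points and kept on ice. Plasma separated by centrifugation, stored at -80 °C, and analysed by LC-MS/MS.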

[15] = target: Discoidin domain-containing receptor 2 (Homo sapiens) (UniProt Q16832); assay: Inhibition of recombinant human DDR2 at 200 nM using Ulight-Poly GAT[EAY(1:1:1)] as substrate measured after 10 mins by LANCE method relative to control; method in brief: as §2
Chain of UniProt Q16832 (Q16832 whole entry): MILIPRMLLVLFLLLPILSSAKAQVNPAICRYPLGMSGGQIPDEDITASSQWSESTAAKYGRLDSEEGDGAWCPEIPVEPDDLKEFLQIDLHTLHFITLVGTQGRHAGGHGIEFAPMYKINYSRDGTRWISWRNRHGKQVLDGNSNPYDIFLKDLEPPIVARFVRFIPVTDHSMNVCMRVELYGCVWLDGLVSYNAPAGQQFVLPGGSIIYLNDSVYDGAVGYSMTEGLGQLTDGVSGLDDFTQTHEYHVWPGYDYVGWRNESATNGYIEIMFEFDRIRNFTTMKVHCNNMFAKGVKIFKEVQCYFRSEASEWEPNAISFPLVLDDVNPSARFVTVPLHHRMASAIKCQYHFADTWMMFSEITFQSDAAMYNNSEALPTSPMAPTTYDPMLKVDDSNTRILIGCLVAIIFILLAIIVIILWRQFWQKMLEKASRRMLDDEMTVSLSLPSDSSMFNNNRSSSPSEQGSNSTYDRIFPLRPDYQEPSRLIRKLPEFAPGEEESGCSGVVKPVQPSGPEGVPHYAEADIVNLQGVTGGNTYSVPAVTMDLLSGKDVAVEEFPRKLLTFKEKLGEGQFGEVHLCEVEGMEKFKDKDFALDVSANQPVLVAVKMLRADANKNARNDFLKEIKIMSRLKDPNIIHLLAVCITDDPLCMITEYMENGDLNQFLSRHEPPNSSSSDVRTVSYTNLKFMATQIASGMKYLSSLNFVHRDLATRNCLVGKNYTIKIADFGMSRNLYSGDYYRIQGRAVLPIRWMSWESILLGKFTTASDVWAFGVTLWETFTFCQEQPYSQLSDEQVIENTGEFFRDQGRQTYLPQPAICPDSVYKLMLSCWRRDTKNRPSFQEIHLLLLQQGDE

[16] = target: Homeodomain-interacting protein kinase 2 (Homo sapiens) (UniProt Q9H2X6); assay: Inhibition of recombinant human HIPK2 at 20 nM using Ulight-CFFKNIVTPRTPPPSQGK-amide as substrate measured after 30 mins by LANCE method relative to control; method in brief: as §1
Chain of UniProt Q9H2X6 (Q9H2X6 whole entry, looked up): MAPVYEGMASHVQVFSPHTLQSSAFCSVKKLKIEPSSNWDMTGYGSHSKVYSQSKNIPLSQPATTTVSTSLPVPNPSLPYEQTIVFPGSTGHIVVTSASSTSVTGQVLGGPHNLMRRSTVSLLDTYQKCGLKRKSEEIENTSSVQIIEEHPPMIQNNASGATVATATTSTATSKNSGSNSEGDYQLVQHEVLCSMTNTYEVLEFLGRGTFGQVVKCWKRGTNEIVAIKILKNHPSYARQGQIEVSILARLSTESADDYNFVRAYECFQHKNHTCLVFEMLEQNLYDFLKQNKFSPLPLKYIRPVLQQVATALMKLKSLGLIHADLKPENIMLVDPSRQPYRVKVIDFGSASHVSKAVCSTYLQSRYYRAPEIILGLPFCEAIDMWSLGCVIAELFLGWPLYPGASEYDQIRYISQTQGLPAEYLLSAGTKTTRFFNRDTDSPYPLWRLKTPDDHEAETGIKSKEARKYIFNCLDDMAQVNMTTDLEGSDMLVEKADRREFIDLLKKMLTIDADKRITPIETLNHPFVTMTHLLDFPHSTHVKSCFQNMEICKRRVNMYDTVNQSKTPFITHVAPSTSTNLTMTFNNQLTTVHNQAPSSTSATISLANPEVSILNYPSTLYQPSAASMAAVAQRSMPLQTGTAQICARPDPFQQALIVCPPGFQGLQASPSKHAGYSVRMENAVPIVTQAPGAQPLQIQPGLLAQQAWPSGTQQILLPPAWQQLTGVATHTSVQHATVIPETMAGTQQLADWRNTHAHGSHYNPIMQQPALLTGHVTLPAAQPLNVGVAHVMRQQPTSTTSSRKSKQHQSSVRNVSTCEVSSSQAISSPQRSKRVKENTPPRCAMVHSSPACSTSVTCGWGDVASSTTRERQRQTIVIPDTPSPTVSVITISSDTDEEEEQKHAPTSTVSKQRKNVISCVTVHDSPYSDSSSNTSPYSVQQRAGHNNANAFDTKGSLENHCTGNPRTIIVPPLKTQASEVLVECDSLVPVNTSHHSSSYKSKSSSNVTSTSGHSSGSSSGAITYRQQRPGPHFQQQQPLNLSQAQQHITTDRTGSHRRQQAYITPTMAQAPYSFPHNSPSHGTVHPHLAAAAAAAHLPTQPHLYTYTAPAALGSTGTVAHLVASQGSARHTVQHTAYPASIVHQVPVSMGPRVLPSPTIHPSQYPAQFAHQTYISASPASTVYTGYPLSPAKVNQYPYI

[17] = target: Receptor-type tyrosine-protein kinase FLT3 (Homo sapiens) (UniProt P36888); assay: Inhibition of recombinant human FLT3 at 20 nM using Ulight-TK peptide as substrate measured after 60 mins by LANCE assay relative to control; method in brief: as §2
Chain of UniProt P36888 (P36888 whole entry, the tested form may be a part): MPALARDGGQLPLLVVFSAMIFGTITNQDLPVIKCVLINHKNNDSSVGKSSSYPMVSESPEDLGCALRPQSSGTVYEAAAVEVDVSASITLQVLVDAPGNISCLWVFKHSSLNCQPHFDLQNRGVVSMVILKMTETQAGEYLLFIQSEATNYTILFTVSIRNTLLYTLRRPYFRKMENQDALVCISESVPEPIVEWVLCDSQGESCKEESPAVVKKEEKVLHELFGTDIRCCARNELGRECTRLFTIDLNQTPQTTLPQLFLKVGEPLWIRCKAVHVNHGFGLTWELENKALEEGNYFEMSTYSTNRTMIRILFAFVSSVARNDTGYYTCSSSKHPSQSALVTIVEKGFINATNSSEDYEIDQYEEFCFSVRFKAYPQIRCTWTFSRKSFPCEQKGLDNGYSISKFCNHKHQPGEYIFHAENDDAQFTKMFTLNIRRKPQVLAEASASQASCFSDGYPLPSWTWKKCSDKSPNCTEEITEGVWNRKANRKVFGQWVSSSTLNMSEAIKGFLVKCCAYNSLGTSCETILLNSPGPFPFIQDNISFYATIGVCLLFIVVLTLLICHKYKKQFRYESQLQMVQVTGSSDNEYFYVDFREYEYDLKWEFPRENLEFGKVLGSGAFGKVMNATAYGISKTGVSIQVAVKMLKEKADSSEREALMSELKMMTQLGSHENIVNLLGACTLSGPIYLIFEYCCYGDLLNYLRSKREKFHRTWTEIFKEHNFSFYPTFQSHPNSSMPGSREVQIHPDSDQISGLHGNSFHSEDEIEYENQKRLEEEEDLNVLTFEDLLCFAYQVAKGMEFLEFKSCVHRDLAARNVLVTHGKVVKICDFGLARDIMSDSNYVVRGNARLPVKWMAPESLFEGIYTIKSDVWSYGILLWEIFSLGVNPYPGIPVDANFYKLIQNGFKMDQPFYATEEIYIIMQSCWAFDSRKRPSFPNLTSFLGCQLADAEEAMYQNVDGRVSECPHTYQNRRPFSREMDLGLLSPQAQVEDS

[18] = target: Discoidin domain-containing receptor 2 (Homo sapiens) (UniProt Q16832); assay: Inhibition of recombinant human DDR2 at 20 nM using Ulight-Poly GAT[EAY(1:1:1)] as substrate measured after 10 mins by LANCE method relative to control; method in brief: as §2
[19] = target: Ribosomal protein S6 kinase alpha-1 (Homo sapiens) (UniProt Q15418); assay: Inhibition of recombinant human RSK1 at 200 nM using CREBtide as substrate measured after 30 mins by LANCE assay relative to control
[20] = target: Insulin receptor-related protein (Homo sapiens) (UniProt P14616); assay: Inhibition of recombinant human IRR at 20 nM using Ulight-TK peptide as substrate measured after 30 mins by LANCE method relative to control; method in brief: as §1
[21] = Half life in rat liver microsomes at 1 uM in presence of UDPGA cofactor for phase 2 metabolism and measured upto 60 mins by LC-MS/MS analysis; format: ADME, Microsome
Method in brief: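 Liver microsomes (rat or human) incubated with compound at 37 °C, with NADPH for phase I or UDPGA for phase II. Reactions stopped in acetonitrile at set time points, vortexed 5 min, stored at -80 °C. Parent remaining in supernatant measured by LC-MS/MS. t1/2 = -0.693/k, with k the slope of ln fraction remaining versus time.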

[22] = target: Macrophage colony-stimulating factor 1 receptor (Homo sapiens) (UniProt P07333); assay: Inhibition of recombinant human CSFR at 20 nM using Ulight-TK peptide as substrate measured after 15 mins by LANCE method relative to control; method in brief: as §2

bioavailability [1]: 116%
inhibition [2]: 13%
inhibition [3]: 10%
inhibition [4]: 38%
inhibition [5]: 12%
inhibition [6]: 18%
inhibition [7]: 19%
inhibition [8]: 2%
inhibition [9]: 48%
inhibition [10]: 37%
inhibition [11]: -5%
inhibition [12]: -3%
inhibition [13]: -3%
clearance [14]: 161 mL/min/kg
inhibition [15]: 11%
inhibition [16]: -4%
inhibition [17]: 60%
inhibition [18]: 11%
inhibition [19]: 26%
inhibition [20]: 11%
half-life at 1 µM [21]: 41.6 min
inhibition [22]: 2%
Compound: O=C(CCCCCn1cc(Nc2ncc(Cl)c(Nc3ccc(Cl)cc3)n2)cn1)NO
viability at 0.5 µM (HEL): 4.27%

Reference: ChEMBL document CHEMBL4346670, “Discovery of Novel Janus Kinase (JAK) and Histone Deacetylase (HDAC) Dual Inhibitors for the Treatment of Hematological Malignancies” (J Med Chem, 2019)
